Results from PMC6919601, “Identification of Plasmodium dipeptidyl aminopeptidase allosteric inhibitors by high throughput screening” (PLoS ONE, 2019).
Among all 110,000 compounds or so, about 230 (0.21%) showed an effect of 50% or more. Some of the results follow.

target: DPAP1 (Plasmodium falciparum, UniProt Q8IIJ9); assay: primary screen, percent inhibition; read by cleavage of a fluorogenic dipeptide substrate; higher = more effect of the substance; parameters: species or system P. falciparum D10 trophozoite lysates; single well
Sequence (Q8IIJ9 whole entry, looked up): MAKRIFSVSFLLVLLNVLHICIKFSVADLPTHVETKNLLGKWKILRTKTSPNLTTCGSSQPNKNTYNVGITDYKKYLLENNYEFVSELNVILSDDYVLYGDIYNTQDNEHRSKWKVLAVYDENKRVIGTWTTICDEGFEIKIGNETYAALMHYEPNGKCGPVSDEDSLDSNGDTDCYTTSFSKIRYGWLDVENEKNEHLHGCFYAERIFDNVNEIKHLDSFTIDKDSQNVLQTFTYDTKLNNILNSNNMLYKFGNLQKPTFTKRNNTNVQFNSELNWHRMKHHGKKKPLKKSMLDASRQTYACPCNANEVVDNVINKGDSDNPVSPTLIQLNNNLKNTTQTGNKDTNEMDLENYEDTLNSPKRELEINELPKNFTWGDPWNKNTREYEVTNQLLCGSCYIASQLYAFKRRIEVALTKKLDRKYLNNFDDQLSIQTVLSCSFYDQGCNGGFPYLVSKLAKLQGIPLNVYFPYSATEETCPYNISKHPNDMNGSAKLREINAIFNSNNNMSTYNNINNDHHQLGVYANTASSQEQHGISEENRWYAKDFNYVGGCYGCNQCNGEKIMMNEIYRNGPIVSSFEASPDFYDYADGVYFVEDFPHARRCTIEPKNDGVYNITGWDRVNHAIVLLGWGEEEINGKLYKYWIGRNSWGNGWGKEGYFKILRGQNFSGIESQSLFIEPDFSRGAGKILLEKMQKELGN
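Also: 30 min substrate incubation versus DMSO and 10 µM JCP410 controls.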

SMILES	% Inhibition @ 10 uM
Nc1c(C(=O)Nc2ccc(S(N)(=O)=O)cc2)sc2nc3c(cc12)CCCCC3	33.2%
CCN(CC)CC(=O)NC(C)c1ccccc1 (stereo not drawn)	-3.57%
CC1CCc2c(sc(NC(=O)c3cc(F)c(F)cc3Cl)c2C(N)=O)C1 (stereo not drawn)	-7.14%
CCc1ccc(-c2[nH]nc3nc(-c4cccc(OC)c4)cc(C(=O)O)c23)cc1	-5.11%
CCC1CCC(N2CCc3cc(OC)c(OC)cc3C2)CC1 (stereo not drawn)	1.57%
CCOC(=O)N1CCN(C(=O)c2ccc3c(c2)ncn3C2CCCC2)CC1	-1.34%
NCC12CC3CC(C1)CC(c1ccc(N)cc1)(C3)C2	-9.91%
O=C1NCC2=C1C(c1ccc(Br)cc1)Nc1ccccc1N2 (stereo not drawn)	-1.69%
CN(CCOC(=O)c1cccs1)Cc1ccccc1	2.38%
Brc1ccc(C2=NN(c3ccccc3)C(c3cccs3)C2)cc1 (stereo not drawn)	-6.12%
Cc1ccc(OCC(=O)Nc2nc3c(C)cccc3s2)cc1	-1.88%
CC(=O)N1CCN(S(=O)(=O)c2ccccc2)C1c1ccccc1 (stereo not drawn)	-5.26%
Cc1cccc([N+]2=C3CCCCN3C(O)(c3ccc(Br)cc3)C2)c1 (stereo not drawn)	0.343%
COc1ccc(CCNC(=O)CCS(=O)(=O)c2cccc3nsnc23)cc1OC	3.61%
N#CCNC(=O)C(CSCc1ccccc1)CSCc1ccccc1	1.35%
Cc1ccc(Cl)cc1NC(=O)CSc1nc(O)c2ccccc2n1	1.27%
COc1ccc(/C=C2\Cc3ccccc3C2=O)cc1OC	-2.12%
Cc1ccc(Oc2ccc(NC(=O)C3CCCCC3C(=O)O)cc2)cc1 (stereo not drawn)	2.36%
CCOc1cc(C2C(C(=O)OC)=CN(Cc3ccc(Cl)cc3)C=C2C(=O)OC)ccc1O	-1.48%
Cc1sc2c(c1C(=O)O)Nc1cc(Br)ccc1S2	-3.16%
Cc1cc2c(cc3c(=O)n(CC(=O)NCc4ccc(OC(C)C)cc4)ncn32)s1	-1.92%
CC(C)(C)NC1CCCCC1NS(=O)(=O)c1ccccc1 (stereo not drawn)	1.12%

SMILES	% Inhibition @ 10 uM
CCc1nn(CC(=O)N2CCCCCC2)c(=O)c2cc3ccccc3n12	1.38%
CCCCNC(=O)CN(c1ccccc1OC)S(C)(=O)=O	-5.7%
O=C(Nc1ccc2c(c1)OCO2)c1ccc(Cl)cc1	-5.6%
CCCC1=C(C(=O)OCC)C(c2ccccc2Cl)C(C#N)=C(N)O1 (stereo not drawn)	-3.13%
COc1cc(C2=N/C(=C/c3cccc4ccccc34)C(=O)O2)cc(OC)c1OC	2.14%
Cc1c(NC(=O)NC2CCCc3ccccc32)sc2nc3n(c(=O)c12)CCC(C)CC3 (stereo not drawn)	-1.7%
CC(C)OCCCNc1ncnc2c1cnn2-c1ccc(F)cc1	4.77%
Cc1ccc(C)c(-c2csc(Nc3ccc(Oc4ccccc4)cc3)n2)c1	-5.62%
CC(=O)C1=C(O)C(=O)N(CCc2c[nH]c3ccccc23)C1c1ccc(Br)cc1 (stereo not drawn)	3.21%
CCSc1ncc(Cl)c(C(=O)Nc2nnc(SCc3ccccc3C)s2)n1	-2.85%
Cc1cc(C)n2ncc(C#N)c2n1	4.74%
CN(C(=O)CSc1nc2cccnc2[nH]1)C1CCCCC1	-0.0871%
CC(=O)N1c2ccccc2C(c2ccccc2)(c2ccccc2)OC1/C=C/c1ccccc1 (stereo not drawn)	-6.15%
Cc1ccc(SC(C)C(=O)NC2CC2)cc1 (stereo not drawn)	-4.12%
CCC(C)NC(=O)Cn1ncn2c(cc3ccccc32)c1=O (stereo not drawn)	3.29%
COc1ccccc1SC1CC(=O)N(c2ccccc2)C1=O (stereo not drawn)	-2.14%
Cc1ccc(C2NCCc3c2[nH]c2ccccc32)cc1 (stereo not drawn)	-2.63%
O=S(=O)(c1ccc(F)cc1)c1cnc2cc3c(cc2c1O)OCO3	-5.25%
CCOc1ccc(CN2CCC(Cc3ccccc3)CC2)cc1	-3.56%
CC1CN(C(=O)c2ccc(COc3ccc4ccccc4c3)o2)CC(C)O1 (stereo not drawn)	0.413%
O=S(=O)(c1cnc(Cl)c(Br)c1)N1CCCc2ccccc21	-3.71%
S=C(c1ccc2c(c1)OCO2)N1CCCCC1	-0.436%

SMILES	% Inhibition @ 10 uM
Cc1ccc(-c2cc(C(=O)O)c3ccccc3n2)cc1C	3.82%
COc1cccc(-c2cc(C(=O)N3CCc4ccccc4C3)[nH]n2)c1	0.181%
COCCNC(=O)c1sc2nc(C)cc(C)c2c1-n1cccc1	-1.08%
COc1ccc(NC(=O)c2ccncc2)c(OC)c1	12.1%
Cc1noc2ncnc(N3CCN(c4ccccn4)CC3)c12	-1.61%
CC[C@H](NC(=O)[C@@H](Cc1ccccc1Cl)NC1=NS(=O)(=O)c2ccccc21)C(=O)c1nc2ccccc2o1	-6.56%
O=C(COc1cccc(Cl)c1)NCc1ccc(F)cc1	-0.0938%
CCOCCCNC(=O)Cc1ccc(-n2c(CC)nc3cccnc32)cc1	2.15%
CCN1CCN(CC(=O)c2c(C)[nH]c3ccccc23)CC1	3.36%
CC(C)Cn1c(=O)c2ccccc2n2c(CCC(=O)N3CCC(N4CCCCC4)CC3)nnc12	2.6%
c1csc(CN2CCc3c([nH]c4ccccc34)C2)c1	-3.77%
COc1ccc(CNC(=O)CCCc2nnc3n(CC(C)C)c(=O)c4sccc4n23)cc1	-1.04%
COc1ccc(C(=O)NC(C)c2ccccc2)cc1Br (stereo not drawn)	-1.6%
CN(C)CCCn1c(N)nc2ccccc21	1.84%
Cc1ccc(OCCn2c(=N)n(CCO)c3ccccc32)cc1	1.08%
Cc1cc(O)oc2nnc(-c3ccccc3)c1-2	0.484%
C=CCNC(=O)N[C@@H](CC1CCCCC1)C(=O)NCC#N	1.35%
O=C(Nc1ccc(S(=O)(=O)N2CCCC2)cc1)c1cccs1	0.746%
COCCNC(=O)Cn1ncc2c3ccccc3n(Cc3cccc(Cl)c3)c2c1=O	-1.58%
CCCN(CCC)S(=O)(=O)c1ccc(C(=O)Nc2nnc(/N=C/c3cccs3)s2)cc1	16.9%
Cc1onc(-c2ccccc2Cl)c1C(=O)N1CCN(C/C=C/c2ccccc2)CC1	-2.9%
Cc1cccc(Oc2nc3ccccn3c(=O)c2/C=C(\C#N)C(=O)NC2CCS(=O)(=O)C2)c1C (stereo not drawn)	2%
